# Experimental data from the supplement of paper PMC8728848.
# The other results are listed elsewhere or left out.
# B1: SBD-G4S3-Fc (protein)
# chain: MASIPSSASVQLDSYNYDGSTFSGKIYVKNIAYSKKVTVVYADGSDNWNNNGNIIAASFSGPISGSNYEYWTFSASVKGIKEFYIKYEVSGKTYYDNNNSANYQVSTGGGGSGGGGSGGGGSEFVPRDCGCKPCICTVPEVSSVFIFPPKPKDVLTITLTPKVTCVVVDISKDDPEVQFSWFVDDVEVHTAQTQPREEQFNSTFRSVSELPIMHQDWLNGKEFKCRVNSAAFPAPIEKTISKTKGRPKAPQVYTIPPPKEQMAKDKVSLTCMITDFFPEDITVEWQWNGQPAENYKNTQPIMDTDGSYFVYSKLNVQKSNWEAGNTFTCSVLHEGLHNHHTEKSLSHSPGAA
# Assays:
# Test in all cases: glycan array binding signal (z-score within array); higher = stronger binding
# Settings in all cases: glycan notation: IUPAC condensed, linker removed
# [1] = target: Fuc(a1-3)GlcNAc
# Procedure, shortened: (§1)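 Columns mapping to the same glycan were averaged after glycan names were converted to IUPAC-condensed notation. The data come from 3228 arrays in the Consortium for Functional Glycomics database, limited to those with an available protein sequence. Binding is reported as a within-array Z-score averaged across arrays of one protein sequence and across linkers.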
# [2] = target: Fuc(a1-3)[Gal(b1-4)]Glc6S
# Procedure, shortened: as §1
# [3] = target: Fuc(a1-3)[Gal(b1-4)]GlcNAc
# Procedure, shortened: as §1
# [4] = target: Fuc(a1-3)[Gal(b1-4)]GlcNAc(b1-2)Man
# Procedure, shortened: as §1
# [5] = target: Fuc(a1-3)[Gal(b1-4)]GlcNAc(b1-2)Man(a1-3)[Fuc(a1-3)[Gal(b1-4)]GlcNAc(b1-2)Man(a1-6)]Man(b1-4)GlcNAc(b1-4)GlcNAc
# Procedure, shortened: as §1
# [6] = target: Fuc(a1-3)[Gal(b1-4)]GlcNAc(b1-2)Man(a1-3)[Fuc(a1-3)[Gal(b1-4)]GlcNAc(b1-2)Man(a1-6)]Man(b1-4)GlcNAc(b1-4)[Fuc(a1-6)]GlcNAc
# Procedure, shortened: as §1
# [7] = target: Fuc(a1-3)[Gal(b1-4)]GlcNAc(b1-3)Gal(b1-3)[Fuc(a1-4)]GlcNAc
# Procedure, shortened: as §1
# [8] = target: Fuc(a1-3)[Gal(b1-4)]GlcNAc(b1-3)Gal(b1-4)[Fuc(a1-3)]GlcNAc
# Procedure, shortened: as §1
# [9] = target: Fuc(a1-3)[Gal(b1-4)]GlcNAc(b1-3)Gal(b1-4)[Fuc(a1-3)]GlcNAc(b1-3)Gal(b1-4)[Fuc(a1-3)]GlcNAc
# Procedure, shortened: as §1
# [10] = target: Fuc(a1-3)[Gal(b1-4)]GlcNAc(b1-3)GalNAc
# Procedure, shortened: as §1
# [11] = target: Fuc(a1-3)[Gal(b1-4)]GlcNAc(b1-6)GalNAc
# Procedure, shortened: as §1
# [12] = target: Fuc(a1-3)[Gal(b1-4)]GlcNAc(b1-6)[Gal(b1-3)GlcNAc(b1-3)]Gal(b1-4)Glc
# Procedure, shortened: as §1
# [13] = target: Fuc(a1-3)[Gal(b1-4)]GlcNAc6S
# Procedure, shortened: as §1
# [14] = target: Fuc(a1-3)[Gal3S(b1-4)]Glc
# Procedure, shortened: as §1
# [15] = target: Fuc(a1-3)[Gal3S(b1-4)]GlcNAc
# Procedure, shortened: as §1
# [16] = target: Fuc(a1-3)[Gal3S(b1-4)]GlcNAc6S
# Procedure, shortened: as §1
# [17] = target: Fuc(a1-3)[GalNAc(b1-4)]GlcNAc
# Procedure, shortened: as §1
# [18] = target: Fuc(a1-3)[GalNAc(b1-4)]GlcNAc6S
# Procedure, shortened: as §1
# [19] = target: Fuc(a1-4)GlcNAc
# Procedure, shortened: as §1
# [20] = target: Fuc(b1-3)GlcNAc
# Procedure, shortened: as §1
# [21] = target: Gal(a1-2)Gal
# Procedure, shortened: as §1
# [22] = target: Gal(a1-3)Gal
# Procedure, shortened: as §1
# [23] = target: Gal(a1-3)Gal(b1-3)GlcNAc
# Procedure, shortened: as §1
# [24] = target: Gal(a1-3)Gal(b1-3)GlcNAc(b1-2)Man
# Procedure, shortened: as §1
# [25] = target: Gal(a1-3)Gal(b1-3)GlcNAc(b1-2)Man(a1-3)[Gal(a1-3)Gal(b1-3)GlcNAc(b1-2)Man(a1-6)]Man(b1-4)GlcNAc(b1-4)GlcNAc
# Procedure, shortened: as §1
# [26] = target: Gal(a1-3)Gal(b1-3)GlcNAc(b1-3)GalNAc
# Procedure, shortened: as §1
# [27] = target: Gal(a1-3)Gal(b1-3)GlcNAc(b1-6)GalNAc
# Procedure, shortened: as §1
# [28] = target: Gal(a1-3)Gal(b1-3)[Fuc(a1-4)]GlcNAc(b1-2)Man(a1-3)[Gal(a1-3)Gal(b1-3)[Fuc(a1-4)]GlcNAc(b1-2)Man(a1-6)]Man(b1-4)GlcNAc(b1-4)GlcNAc
# Procedure, shortened: as §1
# [29] = target: Gal(a1-3)Gal(b1-4)Glc
# Procedure, shortened: as §1
# [30] = target: Gal(a1-3)Gal(b1-4)GlcNAc
# Procedure, shortened: as §1
# [31] = target: Gal(a1-3)Gal(b1-4)GlcNAc(b1-2)Man
# Procedure, shortened: as §1
# [32] = target: Gal(a1-3)Gal(b1-4)GlcNAc(b1-2)Man(a1-3)[Gal(a1-3)Gal(b1-4)GlcNAc(b1-2)Man(a1-6)]Man(b1-4)GlcNAc(b1-4)GlcNAc
# Procedure, shortened: as §1
# [33] = target: Gal(a1-3)Gal(b1-4)GlcNAc(b1-3)GalNAc
# Procedure, shortened: as §1
# [34] = target: Gal(a1-3)Gal(b1-4)GlcNAc(b1-6)GalNAc
# Procedure, shortened: as §1
# [35] = target: Gal(a1-3)Gal(b1-4)[Fuc(a1-3)]GlcNAc
# Procedure, shortened: as §1
# [36] = target: Gal(a1-3)Gal(b1-4)[Fuc(a1-3)]GlcNAc(b1-2)Man(a1-3)[Gal(a1-3)Gal(b1-4)[Fuc(a1-3)]GlcNAc(b1-2)Man(a1-6)]Man(b1-4)GlcNAc(b1-4)GlcNAc
# Procedure, shortened: as §1
# [37] = target: Gal(a1-3)GalNAc
# Procedure, shortened: as §1
binder,measurement,setting,value
B1,glycan array binding signal (z-score),[1],-0.374
same,glycan array binding signal (z-score),[2],-0.089
same,glycan array binding signal (z-score),[3],-0.283
same,glycan array binding signal (z-score),[4],-0.075
same,glycan array binding signal (z-score),[5],-0.034
same,glycan array binding signal (z-score),[6],-0.131
same,glycan array binding signal (z-score),[7],-0.281
same,glycan array binding signal (z-score),[8],0.116
same,glycan array binding signal (z-score),[9],-0.056
same,glycan array binding signal (z-score),[10],-0.251
same,glycan array binding signal (z-score),[11],-0.122
same,glycan array binding signal (z-score),[12],-0.448
same,glycan array binding signal (z-score),[13],-0.406
same,glycan array binding signal (z-score),[14],-0.376
same,glycan array binding signal (z-score),[15],-0.12
same,glycan array binding signal (z-score),[16],-0.033
same,glycan array binding signal (z-score),[17],0.174
same,glycan array binding signal (z-score),[18],-0.32
same,glycan array binding signal (z-score),[19],-0.376
same,glycan array binding signal (z-score),[20],-0.254
same,glycan array binding signal (z-score),[21],-0.316
same,glycan array binding signal (z-score),[22],-0.039
same,glycan array binding signal (z-score),[23],0.292
same,glycan array binding signal (z-score),[24],-0.206
same,glycan array binding signal (z-score),[25],1.16
same,glycan array binding signal (z-score),[26],-0.119
same,glycan array binding signal (z-score),[27],-0.443
same,glycan array binding signal (z-score),[28],0.202
same,glycan array binding signal (z-score),[29],0.017
same,glycan array binding signal (z-score),[30],-0.394
same,glycan array binding signal (z-score),[31],-0.234
same,glycan array binding signal (z-score),[32],0.629
same,glycan array binding signal (z-score),[33],0.357
same,glycan array binding signal (z-score),[34],0.184
same,glycan array binding signal (z-score),[35],-0.267
same,glycan array binding signal (z-score),[36],0.271
same,glycan array binding signal (z-score),[37],-0.096
